These are yes or no findings as the source states them, for the method shown. For some of these results: In cells and extracts the contact can be indirect. Some entries that bind do so weakly or less than the wild type. For some of these results: Where a sequence is shown, tags or fusion partners need not be part of it.
Legend:
[1] = biological target: hypoxia-inducible factor 1α (HIF-1α), endogenous (human (endogenous in SW-1990)) (UniProt Q16665); assay: co-IP; nuclear extraction of hypoxia-stimulated SW-1990 cells transfected with scrambled, ULK1, ULK2 or ULK1/2 shRNA; HIF-1α immunoprecipitated, blot with anti-YAP; endogenous levels
[2] = biological target: T1, Unc-51 like kinase 1 (ULK1), endogenous (human (endogenous in SW-1990)) (UniProt O75385); assay: co-IP; as a4, SW-1990 cells without hypoxia stimuli
T1 sequence: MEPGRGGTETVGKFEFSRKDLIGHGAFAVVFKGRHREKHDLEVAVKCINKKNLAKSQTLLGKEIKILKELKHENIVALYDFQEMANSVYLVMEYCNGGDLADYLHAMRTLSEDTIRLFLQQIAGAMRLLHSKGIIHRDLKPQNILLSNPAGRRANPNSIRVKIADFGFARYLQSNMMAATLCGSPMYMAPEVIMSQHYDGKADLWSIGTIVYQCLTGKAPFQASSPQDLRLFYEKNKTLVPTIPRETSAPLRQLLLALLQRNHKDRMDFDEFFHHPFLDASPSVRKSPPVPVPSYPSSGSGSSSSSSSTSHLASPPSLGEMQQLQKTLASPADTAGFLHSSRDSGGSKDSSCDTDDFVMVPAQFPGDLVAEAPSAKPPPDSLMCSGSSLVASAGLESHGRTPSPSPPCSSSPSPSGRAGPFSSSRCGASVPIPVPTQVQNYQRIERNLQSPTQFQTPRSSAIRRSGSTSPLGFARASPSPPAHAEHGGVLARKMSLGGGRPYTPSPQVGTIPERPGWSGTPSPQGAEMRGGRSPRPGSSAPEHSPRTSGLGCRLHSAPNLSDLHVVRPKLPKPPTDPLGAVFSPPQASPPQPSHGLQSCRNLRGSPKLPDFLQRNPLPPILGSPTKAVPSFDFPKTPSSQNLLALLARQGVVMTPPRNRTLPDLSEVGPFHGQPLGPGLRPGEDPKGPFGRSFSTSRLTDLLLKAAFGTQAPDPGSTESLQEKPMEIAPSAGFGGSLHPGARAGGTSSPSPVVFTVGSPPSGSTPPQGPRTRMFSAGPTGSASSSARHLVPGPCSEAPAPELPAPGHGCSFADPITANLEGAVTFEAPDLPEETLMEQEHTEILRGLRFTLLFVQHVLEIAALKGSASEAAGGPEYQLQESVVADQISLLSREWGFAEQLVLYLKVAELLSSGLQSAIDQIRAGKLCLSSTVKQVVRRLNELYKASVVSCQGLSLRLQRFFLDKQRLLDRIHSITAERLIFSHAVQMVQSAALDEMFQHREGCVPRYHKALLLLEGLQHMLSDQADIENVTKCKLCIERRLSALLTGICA

Sequences of proteins named here, by UniProt entry; tags and fusion partners are left off.
UniProt Q16665: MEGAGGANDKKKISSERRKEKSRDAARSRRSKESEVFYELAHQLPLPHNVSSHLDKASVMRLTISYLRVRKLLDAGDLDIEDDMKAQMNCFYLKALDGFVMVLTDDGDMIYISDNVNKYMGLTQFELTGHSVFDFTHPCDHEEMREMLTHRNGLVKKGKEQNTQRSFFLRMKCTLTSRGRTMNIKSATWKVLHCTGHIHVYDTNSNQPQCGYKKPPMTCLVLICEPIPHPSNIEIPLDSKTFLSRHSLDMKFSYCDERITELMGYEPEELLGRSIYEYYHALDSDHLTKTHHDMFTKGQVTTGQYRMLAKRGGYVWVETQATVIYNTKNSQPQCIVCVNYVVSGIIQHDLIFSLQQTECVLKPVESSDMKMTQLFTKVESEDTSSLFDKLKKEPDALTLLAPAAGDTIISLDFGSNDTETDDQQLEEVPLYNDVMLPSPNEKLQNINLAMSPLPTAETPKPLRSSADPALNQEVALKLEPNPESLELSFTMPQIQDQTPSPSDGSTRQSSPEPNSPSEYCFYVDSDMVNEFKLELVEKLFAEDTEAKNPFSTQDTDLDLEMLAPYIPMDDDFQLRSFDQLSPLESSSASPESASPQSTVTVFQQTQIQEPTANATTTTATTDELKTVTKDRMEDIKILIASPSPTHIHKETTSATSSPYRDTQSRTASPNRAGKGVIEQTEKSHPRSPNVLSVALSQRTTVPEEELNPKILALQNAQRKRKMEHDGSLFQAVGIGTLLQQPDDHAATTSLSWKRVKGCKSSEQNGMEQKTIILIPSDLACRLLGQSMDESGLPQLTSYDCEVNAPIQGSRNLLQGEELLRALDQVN
UniProt P46937: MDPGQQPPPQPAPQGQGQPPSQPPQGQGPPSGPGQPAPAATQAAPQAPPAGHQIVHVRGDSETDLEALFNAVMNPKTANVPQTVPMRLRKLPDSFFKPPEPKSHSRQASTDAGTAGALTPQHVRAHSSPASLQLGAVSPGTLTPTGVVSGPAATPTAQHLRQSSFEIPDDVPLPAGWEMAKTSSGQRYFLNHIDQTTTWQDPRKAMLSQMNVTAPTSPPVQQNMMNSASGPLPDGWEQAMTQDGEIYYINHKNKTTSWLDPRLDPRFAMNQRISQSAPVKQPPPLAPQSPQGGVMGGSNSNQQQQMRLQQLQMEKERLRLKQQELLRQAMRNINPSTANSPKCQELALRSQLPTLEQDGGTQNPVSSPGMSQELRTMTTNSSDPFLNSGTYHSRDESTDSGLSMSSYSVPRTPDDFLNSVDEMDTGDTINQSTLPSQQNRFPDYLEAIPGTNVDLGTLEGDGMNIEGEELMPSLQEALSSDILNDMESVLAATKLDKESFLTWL

[3] = biological target: T1, Unc-51 like kinase 1 (ULK1), endogenous (human (endogenous in SW-1990)); assay: co-IP; nuclear extractions of hypoxia-stimulated SW-1990 cells, endogenous proteins; YAP precipitated and blotted for ULK1, and reciprocally ULK1 precipitated and blotted for YAP
[4] = biological target: T2, His-tagged ULK1 (UniProt O75385); assay: pull-down; 100 ng His fusion protein immobilised on Ni-NTA-sepharose beads, incubated overnight at 4 °C with nuclear lysates from hypoxia-stimulated cells expressing Flag-tagged wild-type YAP; blot with anti-Flag; only the target purified
T2 sequence: T1 sequence

[5] = biological target: T3, His-tagged ULK2 (UniProt Q8IYT8); assay: as above
T3 sequence: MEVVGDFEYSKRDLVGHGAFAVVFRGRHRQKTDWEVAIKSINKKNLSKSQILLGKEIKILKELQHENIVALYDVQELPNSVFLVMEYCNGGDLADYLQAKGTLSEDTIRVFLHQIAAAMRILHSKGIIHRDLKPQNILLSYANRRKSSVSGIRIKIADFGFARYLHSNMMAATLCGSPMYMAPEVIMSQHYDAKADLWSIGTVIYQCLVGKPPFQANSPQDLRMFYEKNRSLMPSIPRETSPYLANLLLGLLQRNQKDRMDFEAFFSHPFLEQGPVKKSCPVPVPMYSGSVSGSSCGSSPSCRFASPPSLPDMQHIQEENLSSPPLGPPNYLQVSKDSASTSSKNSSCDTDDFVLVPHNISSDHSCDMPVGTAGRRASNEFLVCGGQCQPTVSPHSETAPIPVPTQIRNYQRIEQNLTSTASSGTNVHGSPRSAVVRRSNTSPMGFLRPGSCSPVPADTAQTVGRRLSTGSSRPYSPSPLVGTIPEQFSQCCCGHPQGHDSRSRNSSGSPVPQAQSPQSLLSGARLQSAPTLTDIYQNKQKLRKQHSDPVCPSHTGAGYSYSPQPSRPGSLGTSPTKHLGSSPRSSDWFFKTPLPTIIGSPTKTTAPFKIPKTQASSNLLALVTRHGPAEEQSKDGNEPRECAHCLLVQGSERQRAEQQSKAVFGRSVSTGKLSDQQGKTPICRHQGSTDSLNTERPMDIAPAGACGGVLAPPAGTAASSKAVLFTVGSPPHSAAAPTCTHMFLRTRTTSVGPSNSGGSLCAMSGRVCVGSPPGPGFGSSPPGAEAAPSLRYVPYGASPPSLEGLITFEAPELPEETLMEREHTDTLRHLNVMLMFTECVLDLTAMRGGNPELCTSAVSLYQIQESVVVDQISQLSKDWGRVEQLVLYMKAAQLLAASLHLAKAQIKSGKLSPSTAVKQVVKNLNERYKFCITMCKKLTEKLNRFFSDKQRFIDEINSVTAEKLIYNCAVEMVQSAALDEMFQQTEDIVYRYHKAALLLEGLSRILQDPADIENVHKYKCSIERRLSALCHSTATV

[6] = biological target: hypoxia-inducible factor 1α (HIF-1α), endogenous (human (endogenous in SW-1990)) (UniProt Q16665); assay: cell-free assay; as a2, with purified ULK1 and CIP (calf intestinal phosphatase) treatment (Figure S2H)
[7] = biological target: hypoxia-inducible factor 1α (HIF-1α), endogenous (human (endogenous in SW-1990)) (UniProt Q16665); assay: cell-free assay; nuclear extraction from SW-1990 cells expressing Flag-tagged YAP (wild type or S227A) incubated with or without purified ULK1; binding of YAP to HIF-1α read out (Figure S2H)

binding [1]	binding [3]	binding [4]	binding [5]	binding [7]	Substance	binding [2]	binding [6]
binds	binds				yes-associated protein (YAP), endogenous (from UniProt P46937 1-504)	no binding (condition: without hypoxia stimuli)	
		binds	binds	binds	Flag-tagged wild-type YAP (from UniProt P46937 1-504)		no binding (condition: with CIP treatment)
